Here are results for 14 molecules from PMC12136788.

This is one part of the list.

Sequences and labels used below:
B1: ENSG00000198589:be:win_8301|CDS|ENSG00000198589|bound_else_gene|NA|bound_elsewhere_windowed (ssRNA)
RNA: GGGAGUUCUACAGUCCGACGAUCAGAUGAUAACAUAAGAGCCAUCCAGCUGAGCCGAGAUGGGCAGUACCUGCUCACAGGAGGAGACAGAGGAGUGGUCGUGGUCCGGCAGGUGUCGGACCUCAAGCAGCUCUUUGCCUAUCCCAACAGAGGAUUGAGCAUCA
B2: chr22:29528936:29529239:-|three_prime_utr|ENSG00000100296|control|control|control (ssRNA)
RNA: GGGAGUUCUACAGUCCGACGAUCGAUUCGUCCCCCAGGGACACCAGGUCACCAUCCAAGGGCAGUCCUGGUCUUUGGAGAACUAGCUGGACUAGUUCUGUGUAGCAGGAAGCUUGACUUGAAUGUCUUAGCACCCUGGAGUAGCAACAGAGGAUUGAGCAUCA
B3: ENSG00000107863:be:win_6451|3pUTR|ENSG00000107863|bound_else_gene|NA|bound_elsewhere_windowed (ssRNA)
RNA: GGGAGUUCUACAGUCCGACGAUCGUAAAAUACGUAACUUAAAUGAACAUAUUAAAUGUGUAUCUUUUCUUCAGAUACCAGAUUUGAUAUAAUGUUGUAACAUAGGUGUGUAGAUAGUGGAUCCUGGAUGGAACUGGCUUCUUUCAACAGAGGAUUGAGCAUCA
B4: chr6:52502144:52502313:-|3pUTR|ENSG00000065308|msi1|FALSE|unique (ssRNA)
RNA: GGGAGUUCUACAGUCCGACGAUCUCAGCCAUUCACAAGCAUUCAAAACCAAACCAAACAGCAGUUCAUAUACCUGCCUGAGAUAGGCUGGUCCUCACCUCCAGAGCCAGCCAGCCCCGUCAGGGGCCAAACUUACUACCUUGACAACAGAGGAUUGAGCAUCA
B5: ENSG00000126767:stop:overlap|stop_codon|ENSG00000126767|stop_codon|NA|stop_codon (ssRNA)
RNA: GGGAGUUCUACAGUCCGACGAUCUGAGCGGCCAGAAGUUCGUCUACAAGUUUGUGUCCUACCCUGAGUCCCAUUGCGCCCCGUAGCCCGGCCAAGCUCUCCUUCCAGUUUCCAUCCAGUGGCAGCGCCCAGGUGCACAUCCCUCAACAGAGGAUUGAGCAUCA
B6: ENSG00000011304:stop:overlap|stop_codon|ENSG00000011304|stop_codon|NA|stop_codon (ssRNA)
RNA: GGGAGUUCUACAGUCCGACGAUCACAACCACGACCUCGGGGAGAACCACCACCUGCGGGUCUCCUUCUCCAAGUCCACCAUCUAGGGGCACAGGCCCCCACGGCCGGGCCCCCUGGCGACAACUUCCAUCAUUCCAGAGAAAACAACAGAGGAUUGAGCAUCA
B7: chr3:98799072:98799370:-|3pUTR|ENSG00000057019|msi1|total|mutant (ssRNA)
RNA: GGGAGUUCUACAGUCCGACGAUCCAAAGCAUCGUUUUAAAGCACAUGGCCUUUUUUUUUUAAUUAUCCGUGGCCGUAAUAUACCGAAUGUAUUACAUAACUGUCACUGAAGUGGUUGGGGAAAAUGUGGUGACUGAGGUACAGCAACAGAGGAUUGAGCAUCA
B8: chr11:60923185:60923286:+|3pUTR|ENSG00000110108|msi1|total|mutant (ssRNA)
RNA: GGGAGUUCUACAGUCCGACGAUCCAGAGAGCAGGGUGAGCUGCCAGCUGCCCCUCUCCACCAGGGUACCCUGUCUUGGUGGUCCGGGGCCACUUUUCCUUUGAGGCUCCCGUGGAGGUGGAUGUCCUUCUCUGCCAGGCUUGGCAACAGAGGAUUGAGCAUCA
B9: chr14:22633770:22634811:-|CDS|ENSG00000255804|control|control|control (ssRNA)
RNA: GGGAGUUCUACAGUCCGACGAUCAGUGGAAGGAAGAAGGCCUUUAAUACCUGUGCUUCCCACCUGACCAUAGUCAUCAUUUCUAGUGGCAUCACUGUGUUUAUCUAUGUGACUCCCUCCCAGAAAGAAUAUCUGGAGAUCAACCAACAGAGGAUUGAGCAUCA
B10: chr1:223774945:223775046:+|3pUTR|ENSG00000162909|msi1|total|mutant (ssRNA)
RNA: GGGAGUUCUACAGUCCGACGAUCAAAUACACUUUGUAUCUGGACCUCAAAAUUAUGGGAACAUUUACUUAAACGGAUGAUCACCGCUGAAAAUAAUGAUACUGUCAAUUUGAGACCGCAGAAGUUUCACACAUCAAAGUAAAACAACAGAGGAUUGAGCAUCA
B11: ENSG00000172071:stop:overlap|stop_codon|ENSG00000172071|stop_codon|NA|stop_codon (ssRNA)
RNA: GGGAGUUCUACAGUCCGACGAUCCAUCGGGAACAAAACAUUCAAGACAGUCCAACAACUCCCAUAGCCCUUUGCCAAGCAAUUAGCCUUAAGUUGUGCUAGCAACCCUAAUAGGUGAUGCAGAUAAUAGCCUACUUCUUAGAACAACAGAGGAUUGAGCAUCA
B12: chr7:100040983:100041096:+|3pUTR|ENSG00000106261|unk|total|mutant (ssRNA)
RNA: GGGAGUUCUACAGUCCGACGAUCGACCGCCAAGCAAAAUCAGUAAUUAUUUUAAAAUGAACAUAUGUAUUUUUAUUAACUUUCCGUUAAAUACAGAUUUUACAACGAGGUCAGCAUAAGCCUAAAUCUAUACCGAGGGCUAACCAACAGAGGAUUGAGCAUCA
B13: chr4:56448489:56448593:+|CDS|ENSG00000128050|unk|FALSE|bound_elsewhere (ssRNA)
RNA: GGGAGUUCUACAGUCCGACGAUCCCCACAGUGGUCUGAGGAACAGCUGAUUGCUGCAAAAUUUUGCUUUGCUGGACUUCUUAUAGGCCAGACUGAAGUGGAUAUCAUGAGUCAUGCUACACAGGCUAUAUUUGAAAUACUGGACAACAGAGGAUUGAGCAUCA
B14: chr14:39095999:39096113:-|CDS|ENSG00000100934|unk|total|mutant (ssRNA)
RNA: GGGAGUUCUACAGUCCGACGAUCACAAUGACAACCUAUUUGGAAUUCAUUCAACAAAAUGAAGAACGAGAUGGAGUCCGAUUCCGUUGGAAUGUUUGGCCAUCAAGUCGACUGGAAGCUACAAGAAUGGUUGUUCCUGUGGCACAACAGAGGAUUGAGCAUCA

This experiment deals with MSI1 full-length (mouse, UniProt Q61474 1-362). Description: nsRBNS (natural sequence RNA bind-n-seq); RBNS binding buffer (assumed for nsRBNS): 25 mM Tris pH 7.5, 150 mM KCl, 3 mM MgCl2, 0.01% Triton X-100, 500 ug/ml BSA, 20 U/ml SUPERase-In, 4 C; UNK is unkempt and MSI1 is Musashi-1; names of the RNAs are library labels; protein concentration not given here; high values mean tight binding.
Chain of UniProt Q61474 (Q61474 whole entry): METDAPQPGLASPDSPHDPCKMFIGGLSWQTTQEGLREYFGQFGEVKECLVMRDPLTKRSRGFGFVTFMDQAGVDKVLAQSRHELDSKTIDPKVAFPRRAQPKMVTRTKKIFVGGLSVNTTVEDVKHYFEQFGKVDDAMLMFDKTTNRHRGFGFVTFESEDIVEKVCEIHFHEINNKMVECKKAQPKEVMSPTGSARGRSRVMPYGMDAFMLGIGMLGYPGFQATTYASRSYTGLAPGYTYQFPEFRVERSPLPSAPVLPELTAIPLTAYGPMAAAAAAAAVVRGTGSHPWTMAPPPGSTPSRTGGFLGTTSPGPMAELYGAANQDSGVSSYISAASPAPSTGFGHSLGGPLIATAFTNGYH
Consider B1, for which the binding signal came out at 0.431 enrichment R.

With B2, the binding signal worked out at 0.604 enrichment R.

Consider B3, for which the binding signal was 0.743 enrichment R.

The molecule B4 registered a binding signal of 0.706 enrichment R.

Turning to B5, the binding signal was found to be 0.671 enrichment R.

Molecule B6 came in with a binding signal of 0.494 enrichment R.

For the molecule B7, the binding signal came out at 0.493 enrichment R.

In turn, B8 displayed a binding signal of 0.363 enrichment R.

B9 returned a binding signal of 0.57 enrichment R.

In turn, B10 registered a binding signal of 0.211 enrichment R.

As to B11, the binding signal stood at 2.07 enrichment R.

For B12, the binding signal was found to be 1.13 enrichment R.

As for B13, the binding signal came to 0.279 enrichment R.

Take B14: the binding signal amounted to 0.243 enrichment R.
